Laboratory results from the supplement of paper PMC10126150.
Sequences with one replicate were seen in a single cluster, so their values are uncertain.

Tested on: ATP
Experiment: switch fluorescence ratio, 500 uM ATP over buffer (Cy3 cluster intensity, sum of 5 cycles each) (fold (ratio)); higher = stronger signal-on switching upon ATP binding; sequences stand for … in TCGTCGGCAGCGTCAGATGTGTATAAGAGACAGTTTTTTTTTTTTTTTTTTTTTTTTT…TC
Details: aptamer strand: ATP DNA aptamer (quencher-CACCTGGGGGAGTATTGCGGAGGAAGG + anchor), 100 nM annealed; ATP concentration: 500 uM; one replicate
Method in brief: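 Cy3-labelled switching-strand clusters on a modified Illumina MiSeq flow-cell were annealed to 100 nM quencher-labelled ATP aptamer, imaged in selection buffer, then imaged after 15 min with 500 uM ATP at 22 °C. Five buffer/ATP cycles ran, with NaOH stripping and re-annealing between them. The fluorescence ratio is summed target-cycle over summed buffer-cycle Cy3 intensity per cluster, averaged per switch-domain sequence. Clusters outside 100-1000 RFU were excluded.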
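Also: ATP exposure 15 min at 22 °C before imaging.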

Sequence	switch fluorescence ratio
TCGGGGCTGA	1
TGGTACCGGT	1
GCTCATGACA	0.991
ATCAGCTGCG	1.01
GGGGGGCACA	0.997
CGACTGAACT	1.07
CTTATAATGC	1.09
CTCAAATCGA	1.01
GAGGCGAGAA	1.07
TTGGCATATT	1.07
GGCTGCAATT	1.69
AAGGCGGGT	1.02
GGGTAGGAGT	1
GGTCAATAGA	0.992
TTGTTTG	1.02
CGTAAATGGG	0.973
TTGAGGT	0.982
TTGATGCGAA	1
GGGCCTGTCT	1.03
CAGGGATATC	0.986
TGAATGATAT	1.02
AGTAAGTGTG	1.02
TCCAAGGGAG	0.978

Sequence	switch fluorescence ratio
TTTTCTATCA	1.01
GACCTTTCCA	1.14
ACCTCCGGTC	1.37
AGCTCGTGGA	1.04
TGTTTGGACA	1.02
CTTAGACAAG	0.963
CGAGCGGGCC	1.04
GTTTGTCCGC	1.04
CCCTCTTGCA	1.46
AGCGGTCGTG	1.01
CTTGGGGT	1.01
GACTGTCGGT	0.999
GCTGTAAACA	1
AGGCGTGATG	1.02
ATGCGATAAA	0.998
ACTATACGGT	1.43
CTCAGTTCTG	0.974
TCCTGGCACA	1.33
GTTGTTTCT	0.994
CGAGACAGG	1.13
TCTCCCCACA	1.3
AAGACCCTTG	0.988
CGGTGGTTAT	1.01

Sequence	switch fluorescence ratio
TAGATGAAGC	1.03
TGGCGTAGAG	1.01
CTTTGAAAT	0.989
GTGAGGAGCC	0.96
GATGTTGGGG	1.01
TAGGCCTTGT	1
AACACATGTT	1.04
GTACTAAAAA	0.981
TACACGGTCG	0.964
CAGGGGCCAG	0.988
AATCCTTTGT	1.01
CATACTTGCC	1.01
GGTTCGTTAT	0.98
CAAACGTACT	1.76
GATCTGTGCT	0.969
CTATGACAAA	1.03
AGCACACCTA	1.08
TCCCGGTCGG	0.974
GCGGTGATTG	0.992
GTTTGTGTGG	0.969
TTATGACCGG	0.939
TTTCCTCCAT	3.6
AATGGAGCGA	1.04

Sequence	switch fluorescence ratio
ATGCTGCGGT	0.955
ACGGGATC	1.08
TACAAAATTC	1.03
GCTTATCCAA	1.01
AAAGAATGCA	1
AGAATTTTCA	1.02
ATACTGAGCG	1.03
TATTGCTTAC	1.17
TTTTGTCAGT	0.962
AAGCAAGTTG	1.13
GGATGGGCGC	1
AACCCACTTA	1.27
GCAGTTTCAC	1.01
ACGTAGATCA	1.08
AGATAGTATG	1.02
AAGATGGTCC	1.03
TAGGCCAA	0.961
ACTTGTGTGT	0.947
TCGTAAGGGA	1.02
CGACTTACTC	1.92
ATCGTCAATT	0.964
TTAGCCTGGG	1.01
TCCCGAGGGT	1.04

Sequence	switch fluorescence ratio
AACGGTGGGC	1.01
ATTTTCTAAG	1.02
TCCTCGAAGG	1.11
TTACGTACGA	1.58
ACGTAAGGGA	1.08
GGGTTGTATA	1.01
ACATTCCG	1.12
CGTTGGGGA	1.01
GGTCAGTGCC	0.98
AGAGGGCGCT	0.93
CGAGTATACA	1.07
GGGCAGGAAT	0.987
AAAGATACGA	1.14
ATTTACTAA	1.04
CCGAAGCCCG	1.95
TACTTCGTTA	1.03
TATTGTCTGT	1.03
TGCTCATGTT	1.03
TAAAAGCAGA	0.981
GGGCAGGGCA	0.975
CTGCGATG	1.14
GTGATTGGAA	1.06
GCATGCTAA	1.02

Sequence	switch fluorescence ratio
GATTGAGATA	1.02
CGTGCTAGT	0.961
CGGTTTATAC	1.47
GACGCTCG	0.984
GGATAGGATA	1.04
CCTAATATCG	1.03
ATCTAGCGCG	1.06
CGACAGTCGG	1.05
CAGAGTACCT	1.05
CTCTGCACCG	1.27
AGTGATATCT	1.03
TTTTCTGTT	1
TTAACTGAG	1.04
ATTTAGATCA	0.986
CTGGGTTTTA	0.995
AAAGCAGCTG	0.989
TCGAATAGCT	1.06
AGCATATGGA	0.985
AGACTGATCG	0.991
TCCTTTTCGT	0.984
CTGGTCACAA	1.03
TATTCGAGGA	1.02
CAAACTATTG	0.978

Sequence	switch fluorescence ratio
TCTTATCTT	0.984
TCTGGGTCCG	1.04
GTAGTACAT	0.985
CCGCTAGGAG	1
TGGCCGGAGG	0.989
AGTCTGGAGT	0.985
TAATGATGGT	1.06
CAAGTCCTAA	0.986
CAGAATTTAT	0.991
GACCAGAGCT	1.12
AATCGTCTGC	0.989
CTGGGGTATT	0.998
TCTGAAACGA	0.923
GGACTGGCTG	0.972
ATCGTGCAAG	0.99
TTTTACGACG	0.989
GTGTAGTTTC	1
GCCTAAGTAG	0.995
CTACGGCAGC	1.51
GGGGGCTCAT	0.975
